Source: publication PMC4930772, “Crystal structure of a PP2A B56-BubR1 complex and its implications for PP2A substrate recruitment and localization” (Protein & Cell, 2016)

B1: human BubR1([…]) D675A (domain or fragment)
chain: not shown
notes: also called BubR1-D675A; source: E. coli BL21 (DE3), purified the same way as wild type
B2: human BubR1([…]) R677A (domain or fragment)
chain: not shown
notes: also called BubR1-R677A; source: E. coli BL21 (DE3), purified the same way as wild type
B3: human BubR1([…]) I673A (domain or fragment)
chain: not shown
notes: also called BubR1-I673A; source: E. coli BL21 (DE3), purified the same way as wild type
B4: human BubR1([…]) P671A (domain or fragment)
chain: not shown
notes: also called BubR1-P671A; source: E. coli BL21 (DE3), purified the same way as wild type
B5: human BubR1([…]) K667A (domain or fragment)
chain: not shown
notes: also called BubR1-K667A; source: E. coli BL21 (DE3), purified the same way as wild type
B6: human BubR1([…]) S670A (domain or fragment)
chain: not shown
notes: also called BubR1-S670A; source: E. coli BL21 (DE3), purified the same way as wild type
B7: human BubR1([…]) K668A (domain or fragment)
chain: not shown
notes: also called BubR1-K668A; source: E. coli BL21 (DE3), purified the same way as wild type
B8: human BubR1([…]) S676A (domain or fragment)
chain: not shown
notes: also called BubR1-S676A; source: E. coli BL21 (DE3), purified the same way as wild type

molecular target: human PP2A B56γ1(30–380) (human, UniProt Q13362-2 in part); test: ITC; B56γ1 in the cell at 0.03 mmol/L, BubR1 protein or peptide at 0.7 mmol/L injected (20 x 1.5 µL); room temperature; 20 mmol/L Tris-HCl pH 8.0, 200 mmol/L NaCl; one-site model; details: both partners purified

Kd [µM] | dH [kcal/mol] | stoichiometry N | Binder
2.06 ± 0.41 | -12.6 ± 0.55 | 1.09 ± 0.03 | B1
5.85 ± 1.72 | -6.08 ± 0.83 | 1.06 ± 0.11 | B2
4.12 ± 0.33 | -7.55 ± 0.21 | 1.01 ± 0.02 | B3
4.08 ± 1.44 | -7.51 ± 0.88 | 1.1 ± 0.1 | B4
2.52 ± 0.37 | -8.44 ± 0.33 | 1.03 ± 0.03 | B5
2.34 ± 0.63 | -7.29 ± 0.5 | 1.06 ± 0.05 | B6
5.65 ± 1 | -10.5 ± 1.11 | 0.99 ± 0.08 | B7
4.17 ± 0.75 | -10.9 ± 0.64 | 1.07 ± 0.04 | B8
